# Experimental data as given in PubChem BioAssay AID624418 (National Center for Advancing Translational Sciences (NCATS), 2012).
# Out of some 410,000 compounds screened, about 530 (0.13%) were called active. This list was built around the results that the source calls inconclusive (neither active nor inactive); the mix of calls is not that of the screen. The call rests on the fitted dose curve; in most records, active means well fitted inhibition curve with a large enough effect; inconclusive means small, poorly fitted or top-dose-only effect, or another doubt; inactive means no such curve, though single readings can be large or run the other way. Where the call is inconclusive, the potency comes from a doubtful curve fit.
# Test: qHTS of GLP-1 Receptor Inverse Agonists: Cytotox Screen
# Details: HEK293 cAMP-luciferase reporter cells, luminescence, 24 h; activity change, negative = inhibition: at 38.3 µM (top of the series) unless noted
# In short: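 MLSMR compounds, 24 hr on cells at 37 deg C/5% CO2; luminescence after luciferase reagent (12 min RT). Inhibition counted as the undesired cytotoxic outcome.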
# On the % scale 0 is the no-effect control and ±100 the full control effect; potency means the concentration at half of the fitted maximal effect.
SMILES,"activity change, negative = inhibition",Potency
COc1ccc(OCc2cccc(C(=O)NN)c2)cc1,inactive: 0.793%,–
COC(=O)C1=C(O)/C(=C\c2ccc(CNS(=O)(=O)c3ccccc3)o2)N=C1C,inactive: -8.13%,–
Clc1ccc(Cn2cc(Br)cn2)cc1Cl,inactive: 10.2%,–
COCCN1C(=O)COc2ccccc2C1C(=O)NC1CCCC1 (stereo not given),inactive: 22.3%,–
S=C(NCCc1ccc(Cl)cc1)Nc1ccc(Cl)cc1Cl,–,"inconclusive: 11.2 µM [inhibitor, single point]"
Cc1ccc(-c2ccc(/C=N/NC(=O)Cc3nnc(N)s3)o2)cc1Cl,inactive: -1.77%,–
Cc1cc(-n2c(SCC(=O)NCCC3=CCCCC3)nc3n[nH]c(C)c3c2=N)ccc1Cl,–,"inconclusive: 11.2 µM [inhibitor, single point]"
COc1cc(/C=C/C(=O)c2cccc([N+](=O)[O-])c2)cc(OC)c1OC,–,"inconclusive: 12.6 µM [inhibitor, partial curve, poor fit]"
O=C(CSc1ccc(-c2ccccn2)nn1)NCc1ccccc1,inactive: 16.6%,–
CN(C)CC(C(=O)c1ccccc1)c1ccccc1 (stereo not given),–,active: 8.91 µM
COc1cccc(O)c1CN1CCCC(C(=O)c2cccc(C(F)(F)F)c2)C1 (stereo not given),–,"inconclusive: 11.2 µM [inhibitor, single point]"
Cc1cccc2cc(CN(Cc3ccc(F)cc3)C(=O)N3CCOCC3)c(=O)[nH]c12,–,"inconclusive: 31.6 µM [inhibitor, single point]"
CCCCSc1nc2c([nH]1)c(=O)n(C)c(=S)n2C,inactive: -4.64%,–
COc1ccc(-c2cc(-c3ccccc3)n3ncnc3n2)cc1,inactive: 7.13%,–
Cc1nc(SCC(=O)N2CC(=O)Nc3ccccc32)c2c(C)c(C)sc2n1,inconclusive: -32.7% [inhibitor],–
Cc1ccccc1-n1nc2c(c1NC(=O)c1c(-c3ccccc3Cl)noc1C)CSC2,–,"inconclusive: 28.2 µM [inhibitor, single point]"
O=C1c2ccccc2C2(c3ccccc3)N1CCN2C(=O)C(Cl)(Cl)Cl (stereo not given),inactive: -3.53%,–
CSc1ccc(CCNC(=O)CCc2c(C)nc3c(c(C)nn3-c3ccccc3)c2C)cc1,inactive: 2.71%,–
CCC(=O)Nc1nnc(SCC(=O)Nc2ccc3c(c2)OCCO3)s1,inactive: -8.43%,–
Cc1c(S(=O)(=O)c2cccc(Cl)c2)nnn1-c1cccc(C(F)(F)F)c1,inactive: 0%,–
COc1cccc(NC(=S)NC(=O)Cc2ccc(Cl)cc2)c1,–,"inconclusive: 12.6 µM [inhibitor, single point]"
Nc1nc(-c2ccccc2)c(N=Nc2cccc3ccccc23)s1,–,"inconclusive: 11.2 µM [inhibitor, partial curve, poor fit]"
O=C(C1=C[C@H](c2coc3ccccc3c2=O)C[C@H](OCCCCO)O1)N1CCN(Cc2ccccc2)CC1,–,"inconclusive: 28.2 µM [inhibitor, single point]"
C[C@@H](CSc1ccccc1)CN1CC[C@H](O)CCC1=O,–,"inconclusive: 28.2 µM [inhibitor, single point]"

SMILES,"activity change, negative = inhibition",Potency
CC(=O)Nc1ccc(S(=O)(=O)N2CCSc3ccccc32)cc1,–,"inconclusive: 3.98 µM [inhibitor, full curve]"
CN(C)c1ccc(C(CNS(=O)(=O)c2ccccc2)N2CCc3ccccc32)cc1 (stereo not given),inactive: 0.529%,–
CCN1CCN(c2cc(C)c3cc(NC(=S)N4CCOCC4)ccc3n2)CC1,–,"inconclusive: 22.4 µM [inhibitor, single point]"
CCC(C)NC(=O)c1nn(Cc2ccccc2)c(=O)c2ccccc12 (stereo not given),–,"inconclusive: 0.501 µM [inhibitor, full curve, poor fit]"
CN(C)CCNc1nc(-c2ccccc2CO)c2sccc2n1,inactive: -8.22%,–
O=C(CSc1nccn1-c1ccc(F)cc1)Nc1ccc(OC(F)(F)F)cc1,inactive: -11.2%,–
CCc1cc2c(=O)n(Cc3ccco3)c(SCc3c(C)noc3C)nc2s1,–,"inconclusive: 2.51 µM [inhibitor, full curve]"
CCOC(=O)C1CCCN(C(=S)NC(=O)/C=C/c2ccc(F)cc2)C1 (stereo not given),–,"inconclusive: 28.2 µM [inhibitor, single point]"
O=C(CSc1nc(-c2ccco2)cc(C(F)(F)F)n1)N1CCN(c2cccc(Cl)c2)CC1,–,"inconclusive: 28.2 µM [inhibitor, single point]"
CCOC(=O)N1CCN(C(=O)CSCC(=O)Nc2nc(-c3ccc(-c4ccccc4)cc3)cs2)CC1,–,"inconclusive: 28.2 µM [inhibitor, single point]"
Cc1[nH]c(C)c(C(=O)/C=C/c2ccc([N+](=O)[O-])cc2)c1C,–,"inconclusive: 7.94 µM [inhibitor, partial curve, poor fit]"
Cc1ccc(NC(=O)CN2C(=O)S/C(=C/c3ccc(O)c([N+](=O)[O-])c3)C2=O)cc1C,–,"inconclusive: 28.2 µM [inhibitor, single point]"
O=C(CCN1CCOCC1)c1ccc(Br)cc1,inactive: -1.46% [at 0.307 µM],–
COc1ccc(CCNC(=O)CCCOc2cc(=O)n(C)c3ccccc23)cc1OC,–,"inconclusive: 28.2 µM [inhibitor, single point]"
O=C1NC(=S)SC1=Cc1ccc(Cl)cc1,–,"inconclusive: 10 µM [inhibitor, partial curve]"
O=C1CCN(S(=O)(=O)c2ccccc2)CCN1CCOCc1ccc(F)cc1,–,"inconclusive: 25.1 µM [inhibitor, single point]"
Cc1ccc(CN2C(=O)c3ccccc3NC2c2ccccn2)cc1 (stereo not given),inactive: -2.5%,–
O=C(CC1C(=O)N(c2ccccc2)C(=O)N1CCC1=CCCCC1)Nc1ccc(F)cc1 (stereo not given),inactive: -16%,–
CCc1ccccc1NC(=O)c1ccc(CN2CCC(Cc3ccccc3)CC2)cc1,–,"inconclusive: 11.2 µM [inhibitor, single point]"
COc1ccccc1-c1ccc2c(c1)C(C)(Cc1cc(Cl)ccc1C(F)(F)F)C(=O)N2 (stereo not given),–,"inconclusive: 28.2 µM [inhibitor, single point]"
COC(=O)C1=C(Nc2ccccc2NS(=O)(=O)c2ccc(C(F)(F)F)cc2Cl)CSC1,–,"inconclusive: 11.2 µM [inhibitor, single point]"
O=C(NC1CCCCC1)C(c1ccncc1)N(C(=O)c1csnn1)c1ccccc1F (stereo not given),–,"inconclusive: 5.62 µM [inhibitor, partial curve, poor fit]"
Nc1nc(NCCc2ccccc2)nc(NCCO)c1[N+](=O)[O-],–,"inconclusive: 1 µM [inhibitor, partial curve, poor fit]"
CC(C)Cc1nc(SCC(=O)N2CCOCC2)c2c(=O)n(C)c(=O)n(C)c2n1,inactive: -2.29%,–

SMILES,"activity change, negative = inhibition",Potency
CCOc1ccc(/C=N/NC(=O)c2cc3c(OC)cc(OC)c(OC)c3[nH]2)cc1,–,"inconclusive: 8.91 µM [inhibitor, partial curve, poor fit]"
Fc1ccccc1N=C1NN=C(c2ccccc2)CS1,inactive: -0.561% [at 0.307 µM],–
COc1ccc(CCn2c(=S)[nH]c3ccc(N4CCOCC4)cc3c2=O)cc1OC,inactive: 10.8% [at 7.66 µM],–
COCCCNC(=O)c1ccccc1N(Cc1ccccc1)S(=O)(=O)c1ccc(OC)cc1,–,"inconclusive: 2.51 µM [inhibitor, partial curve, poor fit]"
COc1ccc(C2CC(C(F)(F)F)n3nc(C(=O)Nc4ccc5c(c4)OCO5)cc3N2)cc1 (stereo not given),–,"inconclusive: 11.2 µM [inhibitor, single point]"
CCOc1ccc(C2CC(c3ccc(OC)cc3)n3ncnc3N2)cc1 (stereo not given),inactive: -6.07%,–
NC(=S)N=Nc1c(O)n(CCCl)c2ccccc12,–,"inconclusive: 2.51 µM [inhibitor, full curve]"
CN(C)S(=O)(=O)c1cccc(NC(=O)c2cc(-c3cccs3)nn2-c2cccc(Cl)c2)c1,–,"inconclusive: 10 µM [inhibitor, partial curve]"
Cc1ccccc1-c1nc(CN2CCC(C(=O)NC3CC3)CC2)c(C)o1,inactive: -14.5%,–
CC1=NN(c2ccccc2)C(=O)/C1=C\c1sccc1C,–,"inconclusive: 28.2 µM [inhibitor, single point]"
COc1ccc(CN(C(=O)/C=C/c2ccco2)C2CCS(=O)(=O)C2)cc1 (stereo not given),–,"inconclusive: 28.2 µM [inhibitor, single point]"
N#C/C(=C(/O)COC(=O)CSc1ccc(Cl)cc1)c1nc2ccccc2[nH]1,–,active: 8.91 µM
O=C(Nc1ccc(S(=O)(=O)N2CCCC2)cc1)c1cccc(OC(F)F)c1,–,"inconclusive: 20 µM [inhibitor, single point]"
CC(=O)N(C)c1ccc(OCC(O)Cn2c3ccc(Cl)cc3c3cc(Cl)ccc32)cc1 (stereo not given),–,"inconclusive: 28.2 µM [inhibitor, single point]"
Cc1ccc(-c2cccc(C(=O)NCc3ccccc3)n2)c2ccccc12,–,"inconclusive: 31.6 µM [inhibitor, single point]"
COC(=O)CSc1nnc(C)c(=O)[nH]1,inactive: 5.97%,–
O=C(/C=C\c1ccccc1)Oc1cccc2cccnc12,–,"inconclusive: 2.24 µM [inhibitor, full curve, poor fit]"
CCOC(=O)C1(Cc2ccccc2C(F)(F)F)CCN(C(C)CCn2cccn2)CC1 (stereo not given),–,"inconclusive: 15.8 µM [inhibitor, single point]"
CCc1ccc(CN(Cc2cn[nH]c2-c2ccc(OC)cc2)C(=O)Nc2ccc(C)c(F)c2)cc1,–,"inconclusive: 3.16 µM [inhibitor, single point]"
CC1CCN(CCCNC(=O)c2cc(Sc3ccc(F)cc3)nc3ccccc23)CC1,inactive: -21%,–
Cc1ccccc1-c1cc(C(=O)O)n(CC2CC(c3cccnc3)=NO2)n1 (stereo not given),inactive: -3.41%,–
COc1cccc(-c2nnc(SCC(=O)NCc3ccc4c(c3)OCO4)n2Cc2ccco2)c1,inactive: -7.78%,–
